Experimental data reported in the supplement of paper PMC7125110.
± gives the standard error. Variants at the background level are over-represented here.

B1: glmS ribozyme (parent)
chain: AUAAAAGCGCCAGAACUACAGAAAUGUAGUUGACGAGGAGGAGGUUUAUCGAAUUUUCGGCGGAUGCCUCCAAA

Variants of: B1
Assay: self-cleavage kobs at 2500 uM GlcN6P; higher = faster cleavage; RNA array
Settings: with glucosamine-6-phosphate
Procedure, shortened: (§1)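 Over ~14 h at 37 °C, tiles were imaged as glucosamine-6-phosphate (40 μM to 10 mM) in HEPES/KCl/Mg(OAc)2 buffer flowed across sequenced MiSeq chips. The chips carried barcoded ribozyme variants transcribed in situ by E. coli RNA polymerase and tracked with a hybridised Cy3 probe. After normalisation to baseline and to non-cleaving reference variants, one- or two-exponential decay fits of per-tile medians gave kobs. kcat and KM followed from weighted Michaelis–Menten fits across concentrations.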

Variant | self-cleavage kobs at 2500 uM GlcN6P
AUAAAAGCGCCAGAACUACAGAAAUGUAGUUGACGAGUAUGAGGUUUUUCGAAUUUUCGGCGGAUGCGUCCAAA [G38U G40U A48U C68G] | < 1e-05 s⁻¹
AUAAAAGCGCCAGAACUACAGAAAUGUAGUUGACGAGUAGGAAGUUCAUCGAAUUUUCGGCGGAUGUCUCCAAA [G38U G43A U47C C67U] | < 1e-05 s⁻¹
AUAAAAGCGCCAGAACUACAGAAAUGUAGUUGACGAUGAAGAGGUUUAUCGAAUUUUCGGCGAAUGCCUCCAAA [G37U G40A G63A] | < 1e-05 s⁻¹
AUAAAAGCGCCAGAACUACAGAAAUGUAGUUGACGAGGCGGCGGUUUAUCGAAUUUUCGGCGGAUACCUCCAAA [A39C A42C G66A] | 0.00014 ± 4.5e-05 s⁻¹
AUAAAAGCGCCAGAACUACAGAAAUGUAGUUGACGCGGAGGAGGUUUAUCGAAUUUUCGACGGUUGCCUCCAAA [A36C G60A A64U] | < 1e-05 s⁻¹
AUAAAAGCGCCAGAACUACAGAAAUGUAGUUGACGACGAGGAGAUUUAUCGAAUUUUCGGCUGAUGCCUCCAAA [G37C G44A G62U] | < 1e-05 s⁻¹
AUAAAAGCGCCAGAACUACAGAAAUGUAGUUGACGAGCAGGAGGUUUACCGGAUUUUCGGCGGAUGCCUCCAAA [G38C U49C A52G] | < 1e-05 s⁻¹
AUAAAAGCGCCAGAACUACAGAAAUGUAGUUGACGAAGAGGAGGUUGAUCGAAUUUUCGGCGGUUGCCUCUAAA [G37A U47G A64U C71U] | < 1e-05 s⁻¹
AUAAAAGCGCCAGAACUACAGAAAUGUAGUUGACGACGAUGACGUUUAUCGAAUUUUCGGCGGAUGCAUACAAA [G37C G40U G43C C68A C70A] | < 1e-05 s⁻¹
AUAAAAGCGCCAGAACUACAGAAAUGUAGUUGACGACGAGGAGGUUUAUAGAAUUUUCGGCGGAUGCCUCCAAA [G37C C50A] | < 1e-05 s⁻¹
AUAAAAGCGCCAGAACUACAGAAAUGUAGUUGACGAGCAGGAGGUUUAUCGUAUUCUCGGCGGAUGCCUCCAAA [G38C A52U U56C] | < 1e-05 s⁻¹
AUAAAAGCGCCAGAACUACAGAAAUGUAGUUGACGGAGAGGAGGUUUAUCGAAUUUUCGGCUUUGGACUCCAAA [A36G G37A G62U G63U A64U U65G C67A] | < 1e-05 s⁻¹
AUAAAAGCGCCAGAACUACAGAAAUGUAGUUGACGCGGAGGAGGUUAAUCGAAUUUUCGGUGGAUGCCUCCAAA [A36C U47A C61U] | < 1e-05 s⁻¹
AUAAAAGCGCCAGAACUACAGAAAUGUAGUUGACGAAGAGGAGGUUUAUCGAAUUUUCGGCGGAAGCCUCCAAA [G37A U65A] | 7.66e-05 ± 1.9e-05 s⁻¹
AUAAAAGCGCCAGAACUACAGAAAUGUAGUUGACGAGCAGGAGGUUUAUCGAAUUUGCAGCGGGUGCCUCCAAA [G38C U57G G59A A64G] | < 1e-05 s⁻¹
AUAAAAGCGCCAGAACUACAGAAAUGUAGUUGACGACGAGGAGGUUUAUCGACUUUUCGUCGGAUGCCUCCAAA [G37C A53C G60U] | < 1e-05 s⁻¹

Variant | self-cleavage kobs at 2500 uM GlcN6P
AUAAAAGCGCCAGAACUACAGAAAUGUAGUUGACGACGAGGAGGUUUAUCGAAUUUUCGGUGGAUGCCUCGAAA [G37C C61U C71G] | < 1e-05 s⁻¹
AUAAAAGCGCCAGAACUACAGAAAUGUAGUUGACGAAGAGGAGGUUUAUCGAAUUUUCGGCGGAGGACUCCAAA [G37A U65G C67A] | 4.8e-05 ± 1.1e-05 s⁻¹
AUAAAAGCGCCAGAACUACAGAAAUGUAGUUGACGUGGAGGAGGUUUAUCGAAUGUUCGGCGGAUGACUCCAAA [A36U U55G C67A] | < 1e-05 s⁻¹
AUAAAAGCGCCAGAACUACAGAAAUGUAGUUGACGACGAGGAGGUUUAUCGGAUUGUCGGCGGAUGCCUCCAAA [G37C A52G U56G] | < 1e-05 s⁻¹
AUAAAAGCGCCAGAACUACAGAAAUGUAGUUGACGAGAAGGAGGUUUAUAGAAUUUUCGGCGGCUGCCUCCAAA [G38A C50A A64C] | < 1e-05 s⁻¹
AUAAAAGCGCCAGAACUACAGAAAUGUAGUUGACGAGUAGGAGGUUGAUCGAAUUUUCUGCGGAUGCCACCAAA [G38U U47G G59U U69A] | < 1e-05 s⁻¹
AUAAAAGCGCCAGAACUACAGAAAUGUAGUUGACGAGUGGGAGGUUUAUCGAAUUUUCGGCGGAUGCCUCGAAA [G38U A39G C71G] | < 1e-05 s⁻¹
AUAAAAGCGCCAGAACUACAGAAAUGUAGUUGACGAGAAAGAGGUUUAUCGAUUUUUCGGCGGAUGCCUCCAAA [G38A G40A A53U] | < 1e-05 s⁻¹
AUAAAAGCGCCAGAACUACAGAAAUGUAGUUGACGAAGAGGAGGUUUAUCGAAUCUUCGGCGGACGGCUGCAAA [G37A U55C U65C C67G C70G] | < 1e-05 s⁻¹
AUAAAAGCGCCAGAACUACAGAAAUGUAGUUGACGUGGAGGUGGGUUAUCGAAUUUUCGGCGGAAGCCUCCAAA [A36U A42U U45G U65A] | < 1e-05 s⁻¹
AUAAAAGCGCCAGAACUACAGAAAUGUAGUUGACGCGGACGAGGUUUAUCGAAUUUUCGGCGUAUGCCUCCAAA [A36C G40C G63U] | < 1e-05 s⁻¹
AUAAAAGCGCCAGAACUACAGAAAUGUAGUUGACGAGUAGGAGGUUUAUCGAAUUUUCGGCGGAUGGUUCCAAA [G38U C67G C68U] | 0.000248 ± 8.4e-05 s⁻¹
AUAAAAGCGCCAGAACUACAGAAAUGUAGUUGACGUGGAGGAGGUUUAUCUAAUUUUCGGCGUAUGCCUCCAAA [A36U G51U G63U] | < 1e-05 s⁻¹
AUAAAAGCGCCAGAACUACAGAAAUGUAGUUGACGAGCAGGAGGUUUAUCGAAUUUACGGCGGAUGCCUCCAAA [G38C U57A] | < 1e-05 s⁻¹
AUAAAAGCGCCAGAACUACAGAAAUGUAGUUGACGGGGAGUAGGUUUAUCGAAUUUUCGACGGAUGCCUCCAAA [A36G G41U G60A] | < 1e-05 s⁻¹
AUAAAAGCGCCAGAACUACAGAAAUGUAGUUGACGAGCAGGAGGUUCAACGAAUUUUCGGCGGAUGCCUCCAAA [G38C U47C U49A] | < 1e-05 s⁻¹

Variants of: B1
Assay: self-cleavage kobs at 10000 uM GlcN6P; higher = faster cleavage; RNA array
Settings: with glucosamine-6-phosphate
Procedure, shortened: as §1

Variant | self-cleavage kobs at 10000 uM GlcN6P
AUAAAAGCGCCAGAACUACAGAAAUGUAGUUGACGAUGAAGAGGUUUAUCGAAUUUUCGGCGAAUGCCUCCAAA [G37U G40A G63A] | < 1e-05 s⁻¹
AUAAAAGCGCCAGAACUACAGAAAUGUAGUUGACGAGCAGGAGGUUUACCGGAUUUUCGGCGGAUGCCUCCAAA [G38C U49C A52G] | < 1e-05 s⁻¹
AUAAAAGCGCCAGAACUACAGAAAUGUAGUUGACGACGAGGAGGUUUAUAGAAUUUUCGGCGGAUGCCUCCAAA [G37C C50A] | < 1e-05 s⁻¹
AUAAAAGCGCCAGAACUACAGAAAUGUAGUUGACGAAGAGGAGGUUUAUCGAAUUUUCGGCGGAAGCCUCCAAA [G37A U65A] | 0.000124 ± 1.4e-05 s⁻¹
AUAAAAGCGCCAGAACUACAGAAAUGUAGUUGACGACGAGGAGGUUUAUCGACUUUUCGUCGGAUGCCUCCAAA [G37C A53C G60U] | < 1e-05 s⁻¹
